According to USRE38425E1, “Semicarbazones having CNS activity and pharmaceutical preparations containing same” (University of Saskatchewan Technologies, Inc., priority 1995, dated 2004):
Where two headings read alike, the source gives them in different places.

Columns and labels:
mice [1] = assay: MES screen after intraperitoneal injection in mice; assay type: in vivo; conditions: doses of 30, 100 and 300 mg/kg
mice [2] = conditions: intraperitoneal injection in mice, doses of 30, 100 and 300 mg/kg
mice [3] = conditions: intraperitoneal injection in mice, doses of 30, 100 and 300 mg/kg; remark: listed apart in the source

Structure (SMILES)	MES screen 0.5 h: minimum dose whereby bioactivity was demonstrated in half or more of the mice (mice [1]; 0.5 h) [mg/kg]	MES screen 4 h: minimum dose whereby bioactivity was demonstrated in half or more of the mice (mice [1]; 4 h) [mg/kg]	MES screen: minimum dose whereby bioactivity was demonstrated in half or more of the mice (mice [1]; 0.5 h) [mg/kg]	MES screen: minimum dose whereby bioactivity was demonstrated in half or more of the mice (mice [1]; 4 h) [mg/kg]	toxicity screen: minimum dose whereby bioactivity was demonstrated in half or more of the mice (mice [2]; 4 h) [mg/kg]	also measured
Cc1cccc(Oc2ccc(C=NNC(N)=O)cc2)c1 [Compound 5o]	30	100				toxicity screen 0.5 h: minimum dose whereby bioactivity was demonstrated in half or more of the mice (mice [2]; 0.5 h): 100 mg/kg; toxicity screen 4 h: minimum dose whereby bioactivity was demonstrated in half or more of the mice (mice [2]; 4 h): 300 mg/kg
NC(=O)NN=Cc1ccc(Sc2ccccc2)cc1 [Compound 15a]			30	30	300	
O=C1NC(=O)C(c2ccccc2)(c2ccccc2)N1 [Phenytoin, reference compound]	30	30	30	30		
CCC(=NNC(N)=O)c1ccccc1Oc1ccc(Cl)cc1 [14f]			300	300		
CC(=NNC(N)=O)c1ccc(Oc2ccc(F)cc2)cc1 [Compound 13b]			30	30	100	toxicity screen: minimum dose whereby bioactivity was demonstrated in half or more of the mice (mice [2]; 0.5 h): 300 mg/kg; acPTZ screen: minimum dose whereby bioactivity was demonstrated in half or more of the mice (mice [3]; 0.5 h): 100 mg/kg
CC(=NNC(N)=O)c1ccc(Oc2ccc(Br)cc2)cc1 [Compound 13d]			30	30	100	toxicity screen: minimum dose whereby bioactivity was demonstrated in half or more of the mice (mice [2]; 0.5 h): 300 mg/kg; acPTZ screen: minimum dose whereby bioactivity was demonstrated in half or more of the mice (mice [3]; 0.5 h): 300 mg/kg
CCC(=NNC(N)=O)c1ccc(Oc2ccc(Br)cc2)cc1 [Compound 13h]			30	30	100	toxicity screen: minimum dose whereby bioactivity was demonstrated in half or more of the mice (mice [2]; 0.5 h): 300 mg/kg; acPTZ screen: minimum dose whereby bioactivity was demonstrated in half or more of the mice (mice [3]; 0.5 h): 100 mg/kg
N#Cc1ccc(Oc2ccc(C=NNC(N)=O)cc2)cc1 [Compound 4j]	30	30				toxicity screen 0.5 h: minimum dose whereby bioactivity was demonstrated in half or more of the mice (mice [2]; 0.5 h): 300 mg/kg; toxicity screen 4 h: minimum dose whereby bioactivity was demonstrated in half or more of the mice (mice [2]; 4 h): 100 mg/kg; acPTZ screen 0.5 h: minimum dose whereby bioactivity was demonstrated in half or more of the mice (mice [3]; 0.5 h): 30 mg/kg; acPTZ screen 4 h: minimum dose whereby bioactivity was demonstrated in half or more of the mice (mice [3]; 4 h): 30 mg/kg
CC(=NNC(N)=O)c1ccccc1Oc1ccc(Cl)cc1 [14c]			300	300	300	toxicity screen: minimum dose whereby bioactivity was demonstrated in half or more of the mice (mice [2]; 0.5 h): 300 mg/kg; acPTZ screen: minimum dose whereby bioactivity was demonstrated in half or more of the mice (mice [3]; 0.5 h): 300 mg/kg; acPTZ screen: minimum dose whereby bioactivity was demonstrated in half or more of the mice (mice [3]; 4 h): 300 mg/kg
NC(=O)NN=Cc1ccc(Oc2ccc(Cl)cc2)cc1 [Compound 4c]	30	30				toxicity screen 0.5 h: minimum dose whereby bioactivity was demonstrated in half or more of the mice (mice [2]; 0.5 h): 300 mg/kg; toxicity screen 4 h: minimum dose whereby bioactivity was demonstrated in half or more of the mice (mice [2]; 4 h): 30 mg/kg; acPTZ screen 0.5 h: minimum dose whereby bioactivity was demonstrated in half or more of the mice (mice [3]; 0.5 h): 30 mg/kg
CCC(=NNC(N)=O)c1ccccc1Oc1ccc(Br)cc1 [14g]					300	
CCC(=NNC(N)=O)c1ccc(Oc2ccc(Cl)cc2)cc1 [Compound 13g]			30		100	toxicity screen: minimum dose whereby bioactivity was demonstrated in half or more of the mice (mice [2]; 0.5 h): 300 mg/kg; acPTZ screen: minimum dose whereby bioactivity was demonstrated in half or more of the mice (mice [3]; 0.5 h): 300 mg/kg
NC(=O)NN=Cc1ccc(Oc2ccc(Oc3ccccc3)cc2)cc1 [Compound 4i]		300				
CC(=NNC(N)=O)c1ccc(Oc2ccc(Cl)cc2)cc1 [Compound 13c]			30	30	100	toxicity screen: minimum dose whereby bioactivity was demonstrated in half or more of the mice (mice [2]; 0.5 h): 30 mg/kg; acPTZ screen: minimum dose whereby bioactivity was demonstrated in half or more of the mice (mice [3]; 4 h): 30 mg/kg
NC(=O)NN=Cc1ccc(Oc2ccc(F)cc2)cc1 [Compound 4b, 4-(4′-fluorophenoxy)benzaldehyde semicarbazone]	30	100	30	100		
CCC(=NNC(N)=O)c1ccccc1Oc1ccc(F)cc1 [14e]					300	
NC(=O)NN=Cc1ccc(Oc2ccc(I)cc2)cc1 [Compound 4e]	30	30				toxicity screen 0.5 h: minimum dose whereby bioactivity was demonstrated in half or more of the mice (mice [2]; 0.5 h): 300 mg/kg; toxicity screen 4 h: minimum dose whereby bioactivity was demonstrated in half or more of the mice (mice [2]; 4 h): 100 mg/kg; acPTZ screen 0.5 h: minimum dose whereby bioactivity was demonstrated in half or more of the mice (mice [3]; 0.5 h): 100 mg/kg; acPTZ screen 4 h: minimum dose whereby bioactivity was demonstrated in half or more of the mice (mice [3]; 4 h): 300 mg/kg

Structure (SMILES)	MES screen 0.5 h: minimum dose whereby bioactivity was demonstrated in half or more of the mice (mice [1]; 0.5 h) [mg/kg]	MES screen 4 h: minimum dose whereby bioactivity was demonstrated in half or more of the mice (mice [1]; 4 h) [mg/kg]	MES screen: minimum dose whereby bioactivity was demonstrated in half or more of the mice (mice [1]; 0.5 h) [mg/kg]	MES screen: minimum dose whereby bioactivity was demonstrated in half or more of the mice (mice [1]; 4 h) [mg/kg]	toxicity screen: minimum dose whereby bioactivity was demonstrated in half or more of the mice (mice [2]; 4 h) [mg/kg]	also measured
NC(=O)NN=Cc1ccc(OC(=O)c2ccc(Cl)cc2)cc1 [15c]				300		
COc1ccc(Oc2ccc(C=NNC(N)=O)cc2)cc1 [Compound 4h]	100	100				toxicity screen 4 h: minimum dose whereby bioactivity was demonstrated in half or more of the mice (mice [2]; 4 h): 300 mg/kg
CC(=NNC(N)=O)c1ccccc1Oc1ccc(Br)cc1 [14d]						toxicity screen: minimum dose whereby bioactivity was demonstrated in half or more of the mice (mice [2]; 0.5 h): 300 mg/kg
CC(C)(C)CC(C)(C)c1ccc(Oc2ccc(C=NNC(N)=O)cc2)cc1 [Compound 5t]						toxicity screen 4 h: minimum dose whereby bioactivity was demonstrated in half or more of the mice (mice [2]; 4 h): 300 mg/kg
CCC(=NNC(N)=O)c1ccc(Oc2ccccc2)cc1 [Compound 13e]			30	100	100	toxicity screen: minimum dose whereby bioactivity was demonstrated in half or more of the mice (mice [2]; 0.5 h): 100 mg/kg
NC(=O)NN=Cc1ccc(Oc2ccc(Br)cc2)cc1 [Compound 4d]	30	30				toxicity screen 0.5 h: minimum dose whereby bioactivity was demonstrated in half or more of the mice (mice [2]; 0.5 h): 300 mg/kg; toxicity screen 4 h: minimum dose whereby bioactivity was demonstrated in half or more of the mice (mice [2]; 4 h): 30 mg/kg
CCCC(CCC)C(=O)O [Valproic acid, reference compound]						acPTZ screen 0.5 h: minimum dose whereby bioactivity was demonstrated in half or more of the mice (mice [3]; 0.5 h): 300 mg/kg; acPTZ screen: minimum dose whereby bioactivity was demonstrated in half or more of the mice (mice [3]; 0.5 h): 300 mg/kg
NC(=O)NN=Cc1ccc(OCc2ccccc2)cc1 [15d]			300	300		acPTZ screen: minimum dose whereby bioactivity was demonstrated in half or more of the mice (mice [3]; 4 h): 100 mg/kg
NC(=O)N1c2ccccc2C=Cc2ccccc21 [Carbamazepine, reference compound]	30	100	30	100		acPTZ screen 0.5 h: minimum dose whereby bioactivity was demonstrated in half or more of the mice (mice [3]; 0.5 h): 100 mg/kg; acPTZ screen: minimum dose whereby bioactivity was demonstrated in half or more of the mice (mice [3]; 0.5 h): 100 mg/kg; acPTZ screen 4 h: minimum dose whereby bioactivity was demonstrated in half or more of the mice (mice [3]; 4 h): 300 mg/kg; acPTZ screen: minimum dose whereby bioactivity was demonstrated in half or more of the mice (mice [3]; 4 h): 300 mg/kg
NC(=O)NN=Cc1ccc(OC(=O)c2ccccc2)cc1 [15b]				300		
Cc1ccc(Oc2ccc(C=NNC(N)=O)cc2)cc1 [Compound 4f]	30	100				
NC(=O)NN=Cc1cccc(Oc2ccccc2)c1 [Compound 3]		300				
NC(=O)NN=Cc1ccc(S(=O)(=O)c2ccccc2)cc1 [15e]				300		
NC(=O)NN=Cc1ccc(Oc2ccccc2)cc1 [Compound 4a]	100	300				
CCCCCCCOc1ccc(Oc2ccc(C=NNC(N)=O)cc2)cc1 [Compound 5v]						toxicity screen 0.5 h: minimum dose whereby bioactivity was demonstrated in half or more of the mice (mice [2]; 0.5 h): 300 mg/kg
CC(=NNC(N)=O)c1ccc(Oc2ccccc2)cc1 [Compound 13a]			30	100	100	toxicity screen: minimum dose whereby bioactivity was demonstrated in half or more of the mice (mice [2]; 0.5 h): 100 mg/kg
